According to PubChem BioAssay AID2060898 (Molecular Pharmacology Branch, DTP, NCI, 2025):
Some entries of the source have several records that differ or are many. The list is limited to them. There may be further records. The records of an entry repeat one measurement across runs, samples, wells, individuals or studies. Dates in brackets are months of testing.

System: 616215-338-R-J1-PDC complex spheroid viability
Assay: Anticancer human tumor 616215-338-R-J1-PDC patient-derived colon adenocarcinoma cell line growth inhibition [RAS]
Conditions: for viability, T/C: stronger effect = lower value; for IC50: compound alone
Description: RAS pathway inhibitors in Combinations in Complex Spheroids
A high-throughput screen of multi-cell type tumor spheroids was designed to identify active combinations of RAS pathway inhibitors and targeted small molecules. Complex spheroids include a stromal component modeled by human endothelial cells (HUVEC) and fibroblasts modeled by human mesenchymal stem cells (MSCs). The concentration ranges selected for each drug and investigational agent were based upon clinically achievable concentrations if the clinical Cmax of the agent was known.
Compounds. The drugs and investigational agents: abemaciclib (NSC768073), cobimetinib (NSC768068), divarasib (GDC6063, NSC841802), docetaxel (NSC628503), GDC-1971 (RLY-1971, NSC841576), gemcitabine (NSC613327), inavolisib (NSC800729), ipatasertib (NSC767898), KB-0742 (NSC834161), MRTX-1133 (NSC836407), osimertinib (NSC779217), RMC-4630 (NSC839698), RMC-6236 (NSC851965), RMC-6291 (NSC852671), Ro-3306 (NSC812927), sapanisertib (NSC764658), SN-38 (NSC673596), staurosporine (NSC755774), SY5609 (NSC837396), and tovorafenib (DAY101, NSC766906), were obtained from the National Cancer Institute (NCI) Developmental Therapeutics Program Chemical Repository. The FDA-approved anticancer drug set is available from the NCI Developmental Therapeutics Program. […] The stock solutions were prepared in dimethyl sulfoxide (DMSO, Sigma-Aldrich, St. Louis, MO, cat. D2650) at 800-fold the tested concentration and stored at -70 degrees C prior to their use. All drugs and investigational agents were tested over a range starting from a high concentration at or near the clinical Cmax and decreasing in half-log increments. If the clinical Cmax for an agent had not been determined, the highest concentration tested was 10 microM.
Cell Culture. All cells were maintained in an incubator at 37 degrees C and 5% CO2 with 95% humidity. The PDC lines were cultured according to standard operating procedures established by the NCI PDMR. All PDCs were thawed and cultured in Matrigel-coated flasks prepared with a working solution of 1X Ham's F-12 nutrient mix, without supplementation (Invitrogen, Waltham, MA, cat. 11765054), 100 U/mL penicillin-streptomycin (Invitrogen, cat. 15140122), and 2.5% Matrigel (Corning Inc., Corning, NY, cat. 354248) for the first three passages. The 362531-283-R-J2-PDC and 782815-120-R-J1-PDC lines were cultured in 6C/Colon 1B media, which includes advanced DMEM/F-12 (Thermo Fisher Scientific, cat. 12634028), 10 mM HEPES (Thermo Fisher Scientific, cat. 15630080), 1X GlutaMAX supplement (Thermo Fisher Scientific, cat. 35050061), 0.1 mg/mL primocin (InvivoGen, San Diego, CA, cat. ant-pm-2), 10% defined fetal bovine serum, heat inactivated (HyClone Laboratories Inc., Logan, UT, cat. SH30070.03HI), 50% L-WRN conditioned media (ATCC, cat. CRL-3276), 1.25 mM N-Acetyl-L-cysteine (Sigma-Aldrich, cat. A9165), 10 mM nicotinamide (Sigma-Aldrich, cat. N0636), 1X B-27 supplement (Thermo Fisher Scientific, cat. 17504044), 1X N-2 supplement (Thermo Fisher Scientific, cat. 17502048), 50 ng/mL human EGF (Thermo Fisher Scientific, cat. PHG0311), and 10 microM Y-27632 dihydrochloride (Tocris Bioscience, cat. 1254). The K12877-001-R-J1-PDC line was cultured in 6I media, which includes all 6C/Colon 1B media plus 10 ng/mL human FGF-10 (PeproTech, cat. 100-26), 1 ng/mL human FGF-2 (PeproTech, cat. 100-18B), 1 µM prostaglandin E2 (Tocris Bioscience, cat. 2296), […] hydrocortisone (Sigma-Aldrich, cat. H4001), and […] bovine insulin (Sigma-Aldrich, cat. I6634). The K86415-001-R-J1-PDC line was cultured in 6D media, which includes all 6C/Colon 1B media components minus the L-WRN conditioned media. The 485176-168-R4-J1-PDC was cultured in PANC media, which includes all 6C/Colon 1B media plus 100 ng/mL human FGF-10 (PeproTech, cat. 100-26), 500 nM SB-431542 (Selleckchem, cat. S1067), and 10 nM gastrin (Tocris Bioscience, cat. 3006). […]
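Note: spheroids exposed to agents for seven days before viability readout.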
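Throughout, for viability, T/C: 100% = DMSO vehicle control viability.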

NC1c2ccccc2OC12CCN(c1cnc3c(N4CCCc5ncccc54)n[nH]c3n1)CC2 (centres undefined)
viability, T/C (compound alone 0.1 µM): 95%, 82.9% [2024-05] and 109%, 104% [2024-06] | viability, T/C (compound alone 3.16 µM): 47.4%, 65.4% [2024-05] and 79.9%, 75.1% [2024-06]

CCN1CCN(Cc2ccc(Nc3ncc(F)c(-c4cc(F)c5nc(C)n(C(C)C)c5c4)n3)nc2)CC1
viability, T/C (compound alone 0.00316 µM): 110%, 88.3% [2024-05] and 111%, 118% [2024-06] | viability, T/C (compound alone 0.316 µM): 138%, 143% [2024-05] and 125%, 151% [2024-06]

C[C@@H](NC(=O)c1ncnc(N)c1Cl)c1ncc(C(=O)Nc2cc(C(F)(F)F)c(Cl)cn2)s1
viability, T/C (compound alone 3.16 µM): 98.9%, 102% [2024-05] and 82.3%, 112% [2024-06] | viability, T/C (compound alone 10 µM): 71.7%, 60.6% [2024-05] and 46.2%, 56.3% [2024-06]

CCc1c2c(nc3ccc(O)cc13)-c1cc3c(c(=O)n1C2)COC(=O)[C@]3(O)CC
IC50: 13.7 nM, 21.9 nM [2024-05] and 7.25 nM, 13.3 nM [2024-06] | viability, T/C (compound alone 0.00949 µM): 54.7%, 76.4% [2024-05] and 33.7%, 57% [2024-06]

CC(C)NCC(C(=O)N1CCN(c2ncnc3c2C(C)CC3O)CC1)c1ccc(Cl)cc1 (centres undefined)
IC50: 9.41 µM, 9.03 µM [2024-05] and > 10 µM, 10 µM [2024-06]
